# In the supplement of paper PMC11417369:
# This is one part of the list.
# Tested on: PfHDP1 homeodomain (GST-tagged)
# Assay: gcPBM binding intensity (ln(normalized median fluorescence intensity)); higher = stronger DNA binding
# Summary of the method: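 An Agilent 4 × 180k array of primer-extended double-stranded 36-bp intergenic genomic probes, with negative controls, was incubated for 1 h with GST-tagged P. falciparum DNA-binding domains expressed in E. coli. Alexa488 anti-GST antibody detected bound protein, scanned at 488 nm. Binding intensity is the highest Masliner-normalised natural-log median intensity across replicate spots of either probe orientation.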
row,Sequence,gcPBM binding intensity (ln)
1,GACCCACTTTTCTGCACACATAAAAAATATATAAAT [CACACA_site4483],8.88
2,TATAATAAAACTTTTACACACTTTAAAAAAAAAAAA [CACACA_site6392],6.05
3,TAAAAGTAAAGACATGCATGCATTGGTATCTTTTAC [TGCATGCA_site665],6.23
4,TTTATATTTAAATATATATGAGAAAACACAAAATAT [TGCATGCA_negctrl_site211],6.98
5,TAATATCAATATAAAGTACACACTATAGTATGTATT [CACACA_site2280],6.3
6,TATATATATATATATATACACACGTATATATATACA [CACACA_site4155],9.31
7,ATATCTTTGCAAAGATGTACTTGTAAAAATATATGA [XGTACX_site768],7.88
8,ATAATTTTTTTTTTTTTTTTTTGAAAGTAGCATATG [CACACA_negctrl_site732],6.14
9,AATAATGAAGCTTATGCACACGTTCATTATTTATAT [CACACA_site5736],10.6
10,TACATATTTATATACACACACACCCTAAAAATATAT [CACACA_site6861],7.06
11,AAAAGAATTACTTTCACACATATATATCTGTAAATA [CACACA_site5798],6.24
12,ACTACAAGGCAATACAGTACATATAAATGTCATAAT [XGTACX_site8468],6.37
13,AAAAAGGTTATTGGTACACACATATGTATTTATATA [CACACA_site4464],6.59
14,TACCTTTTATTAATGTGTACCTAAAATATAATACTT [XGTACX_site192],6.36
15,TAACAAAACCTTATATGTACACACATATACATCACA [XGTACX_site6772],6.52
16,TTAAAAATGAACATATGTACATATATATATATATAT [XGTACX_site7923],9.3
17,TTATCATTTTAAATCACACACATATATATATATATA [CACACA_site2849],9.41
18,CAATAATTTTTTGTGGGTACAAATAATTTTTTAAAT [XGTACX_site2407],5.98
19,AGGAGAAAAGATAAAGACTTCAAGAAAAAAAAATAA [TGCATGCA_negctrl_site258],6.46
20,AAAATATAAAAAGTCACACATATATATATTTATTTA [CACACA_site4872],6.33
21,TTGAATGAAAAAATTTGTACTCATATAAATAATTTA [XGTACX_site4628],6.18
22,TTTCATATTTTGTCCTGTTTTTTTTTTTTTTTTCTT [CACACA_negctrl_site993],6.18

row,Sequence,gcPBM binding intensity (ln)
1,TTTTGAATATTTGGTCGTACGTAAAAATAGATAATT [XGTACX_site5755],6.75
2,AAAAAAAAAAAATATACACACACACCGACACATAAA [CACACA_site9270],7.06
3,GATGCTAAAATTTATACACACAAAAAAAAAAAATTC [CACACA_site3284],6.51
4,TATTTTATGTAAATTGGTACACATATGTCAGTAAAA [XGTACX_site7111],6.67
5,AAAAAAAAAATGTGCACACGCGTACACCCAAAAAAA [CACACA_site5149],9.65
6,TTTTTGTATCCTTCTTCTTTTTCCAGACTACATTAT [XGTACX_negctrl_site216],7.13
7,TATAAAAATAATATTACACACATGTAAAATGGCTGT [CACACA_site5755],6.1
8,TAAATATATGCATATACACACAACAAAAAAATATAT [CACACA_site2341],7.25
9,TTGTGGATTTTGTGCGCACACACATGCAAAAAGAAA [CACACA_site1147],9.58
10,TCTCAGTAAATTAAATGTACATAAGGGAGGAACTAT [XGTACX_site8045],6.6
11,CACAGACATATATATACACACTTTTATTTAAATAAC [CACACA_site4962],7.16
12,TACATATGGCACATATGTACACACGTATAGATAATA [XGTACX_site4123],6.76
13,ATGAATATAAAATATACACACTTATATATCGAATGA [CACACA_site6240],6.12
14,TTTTATTTTTTCTCACGTACAAATATATAATTTTTT [XGTACX_site6952],6.56
15,AATATATCCTATTCGAACAAAAATACATGCACATAT [CACACA_negctrl_site1058],10.1
16,GTATATATATATATATGTACATATATGTAGATATAT [XGTACX_site5431],6.61
17,ATATGTACGCAAGGTGCACACTGGTGCATTAAAAAA [CACACA_site1801],11.5
18,ATAAAATTTATATAAGCACACAAATATATATTTATA [CACACA_site9083],6.43
19,TTATGGTTATACATATGTACATATATATATATATAT [XGTACX_site1494],9.26
20,GTAAAGGCTATATATGTGCACATTTTTTTTTTTTTT [GTGCAC_site9925],10.9
21,AATTGCATAATATATTCACACATTTTTAAGTGATAC [CACACA_site5679],6.82
22,TATCATTATGTAGAAACACACATAAGCTTCGGTTCA [CACACA_site2766],5.94

row,Sequence,gcPBM binding intensity (ln)
1,GGGGAAAAAAAAAAAGGAAAAAGAAAAAAAAAAAAA [GTGCAC_negctrl_site489],5.96
2,AACATATAAATAAACTGTACATATATATATATATAT [XGTACX_site1056],9.37
3,AATATTACGTGTTTGGTATTTTTCGATGTTGGCAGG [XGTACX_negctrl_site59],6.58
4,ATATTATTTTAAAAAAGTACATTTTTAAGAATTCTT [XGTACX_site6630],6.5
5,TATACGGACTCTAAGTGTACTTAAAATAATTCAAAC [XGTACX_site3606],6.38
6,TATGTGTGACAAAATTGTACGGTCTCTTTATTTTGT [XGTACX_site2679],6.37
7,TATTATATAATAAAAATTATTATTATTTGTATAAAT [CACACA_negctrl_site195],6.26
8,TAAAAATGTTGACACACACACATAAATATATTTTAT [CACACA_site7227],6.65
9,TATATTGCCCTTCACACACACACATATATATATATA [CACACA_site2492],9.23
10,ATTTTTATACCTAAGTGTACATGATGTTTTCTTTTT [XGTACX_site973],6.69
11,TGTTTCCTATTTTGTATGCACTTTTTGTCATAATTA [GTGCAC_site9921],7.86
12,TAAATAAATAAAAAAACACACATATAAATATAAATA [CACACA_site7815],6.47
13,TTACTATATAATATGTGTACACAACATATAATATAT [XGTACX_site1383],6.81
14,GTTGTGTAATTCGTAACACACATAAAATATAAATAA [CACACA_site7799],6.55
15,AAAAAAAAAAAAAAAAAAAAAAAAATATATATATAT [CACACA_negctrl_site436],8.97
16,TTTTTTTTTTGATGTTGTACTTATATACTATATAAT [XGTACX_site2778],6.38
17,CATTTTTAAAAAAATTGTACAAAACATATATGTGTA [XGTACX_site3396],6.73
18,TTCCTTTTGAACTCTCGTACGCGTAGGTGTTATTAT [XGTACX_site6264],6.67
19,TATTAAAAGTAAAAAACACACATGGATATATACATA [CACACA_site3959],6.65
20,AATATATAGCTAAAAACACACAAATATATACTCATA [CACACA_site5904],6.55
21,TTTATAAAATTTATTGCACACAATTATTTTATAATT [CACACA_site2489],9.98
22,CTCACGTAGCTTGATGCATGCAAACTTGAGTAAAAG [TGCATGCA_site409],6.94

row,Sequence,gcPBM binding intensity (ln)
1,ATACATTTTTTTTTCACACATATATATATATTTAAT [CACACA_site5995],7.31
2,ATATATATATATTGCACACATATAAATATATATATT [CACACA_site807],10.6
3,CAACCTTTTTTGTTGGTGCATAATTTTTTTTTCTTT,9.44
4,AAAAAAAAAGTATATATATATTTAAGGAATTCTCTC [GTGCAC_negctrl_site454],6.33
5,TAAACAGACATACATACACACATACATACAGACATA [CACACA_site6997],6.63
6,CATATACTCGGACACACACACACACCGACAAAAAAA [CACACA_site4433],7.21
7,TATCATAAAATATGTAGTACGTATATATATAAAAAT [XGTACX_site5455],6.89
8,TTTATAGTTTTTAATAGTACACATATTTTTAAGTAT [XGTACX_site5498],6.38
9,TTTTGTGGAGGATGGTGTACGGTATTGTATTATTAC [XGTACX_site1942],6.8
10,TTTTCATTTTTCTTTACACACATATATTTATTTATA [CACACA_site7119],7.15
11,GTTAATATTTACTACACACACTTAAAATATGTATAT [CACACA_site4194],6.63
12,ATATTATAATTAAAACGTACGTATTTATGAATTCAT [XGTACX_site1047],6.8
13,TATTAATTAAACCATACACACATAATTTTTTTATAA [CACACA_site843],6.47
14,TACATAAATTAAAACACACACACACTAAAAAAAAAA [CACACA_site7130],6.73
15,TATATATATATATATATTGAAATTTATAATAATATT [TGCATGCA_negctrl_site407],9.28
16,ATTTTTTTATGTACACAAAAAAAAAAAAAAATTTAA [CACACA_negctrl_site1028],6.23
17,AACATAGAAACGTTATGTACATATTGAAGGATATTA [XGTACX_site6015],6.76
18,AAATATTTATACTATACACACCCAATTTAAAAAAAA [CACACA_site6669],7.02
19,TATATATATATTGAAGTGCAAAATACTGTACGTAAT,9.81
20,GAAATAATTTCATATACACACATATACATACATACA [CACACA_site1358],7.13
21,AAAAGAATATAAAGATACATTGTGATATGGGACAAA [CACACA_negctrl_site405],6.6
22,TATATATATATAAACAGTACACAAATTGTAAATAAA [XGTACX_site8268],8.73
